# Test results published in the supplement of paper PMC12355420.
# Where a name gives a salt, the structure may show the parent alone. The list shows a part of the results. Rule as the data show it: active = 0.5 or less and inactive = the rest. Repeats are few or missing, and single values can be far off.
# Tests used:
# Conditions in all cases: 50 µM; 24 h
# [1] = test system: HeLa VPS33A reporter cells; assay: relative cell viability (CellMask signal) vs DMSO (fraction of DMSO); higher = less cytotoxic;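 also: primary screen of an FDA-approved drug library in HeLa reporter cells in 96-well format, CellMask signal normalized to DMSO-treated wells set as 1, under 0.5 deemed highly cytotoxic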
# [2] = test system: HeLa VPS33A R498W KI + HA-SDC1-FLAG; assay: relative GAG core protein HA-SDC1 amount per cell number vs DMSO (fraction of DMSO); higher = more SDC1 (GAG core protein);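 also: HA-SDC1 level read out by In-Cell Western staining with an anti-HA antibody against the N-terminal tag, screening FDA-approved library drugs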
# [3] = test system: HeLa VPS33A KO + NLuc-VPS33A R498W; assay: relative mutant VPS33A R498W amount (NanoLuc luminescence) vs DMSO (fraction of DMSO); HeLa model of a glycosaminoglycan (GAG) storage disease; KI is knock-in and KO knock-out; SDC1 is syndecan 1; higher = higher mutant VPS33A level;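 also: screen of an FDA-approved drug library, NanoLuc luminescence read after lysing the treated cells, taken as a measure of mutant VPS33A protein stability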
SMILES,relative cell viability [1],relative GAG core protein HA-SDC1 amount per cell number [2],relative mutant VPS33A R498W amount [3]
Oc1ccc(OCc2ccccc2)cc1 [Monobenzone],1.02,inactive: 0.816,0.557
O=C(O)Cc1cc(I)c(Oc2ccc(O)c(I)c2)c(I)c1 [Tiratricol],1.1,active: 0.427,0.965
O=C([O-])C(O)[C@H](O)[C@@H](O)[C@H](O)[C@H](O)CO.O=C([O-])C(O)[C@H](O)[C@@H](O)[C@H](O)[C@H](O)CO.[Ca+2] (stereo partly specified) [Calcium Gluceptate],1.5,inactive: 1.48,0.861
COc1cc(C=O)ccc1O [Vanillin],1.07,inactive: 0.799,1.18
OC[C@@H](O)[C@H](O)[C@@H](O)CO [Xylitol],1.09,inactive: 0.965,1.37
S=P(N1CC1)(N1CC1)N1CC1,1.17,inactive: 0.647,0.863
Cc1ccc(=O)n(-c2ccccc2)c1 [Pirfenidone],0.994,inactive: 0.702,1.33
CC(=O)O[C@]1(C(C)=O)CC[C@H]2[C@@H]3C=C(C)C4=CC(=O)CC[C@]4(C)[C@H]3CC[C@@]21C [Megestrol Acetate],1.14,inactive: 1.25,1.36
C[C@@H]1C/C=C/C=C/C=C/C=C/[C@H](O[C@@H]2O[C@H](C)[C@@H](O)[C@H](N)[C@@H]2O)C[C@@H]2O[C@](O)(C[C@@H](O)C[C@H]3O[C@@H]3/C=C/C(=O)O1)C[C@H](O)[C@H]2C(=O)O [Natamycin],1.01,inactive: 0.95,1.35
C[C@@H](O)[C@H]1C(=O)N2C(C(=O)O)=C(S[C@@H]3CN[C@H](CNS(N)(=O)=O)C3)[C@H](C)[C@H]12 [Doripenem Hydrate],1.09,inactive: 1.1,1.47
Cn1cnc([N+](=O)[O-])c1Sc1ncnc2[nH]cnc12 [Azathioprine],1.06,inactive: 0.807,6.23
CCC1=C(C)CN(C(=O)NCCc2ccc(S(=O)(=O)NC(=O)N[C@H]3CC[C@H](C)CC3)cc2)C1=O [Glimepiride],1.15,inactive: 1.03,1.29
CC1(C)[C@@H](OC(=O)CCC(=O)O)CC[C@]2(C)[C@H]3C(=O)C=C4[C@@H]5C[C@@](C)(C(=O)O)CC[C@]5(C)CC[C@@]4(C)[C@]3(C)CC[C@@H]12 [Carbenoxolone disodium],1.02,active: 0.41,1.86
C[C@H]1COc2c(N3CCN(C)CC3)c(F)cc3c(=O)c(C(=O)O)cn1c23 [Levofloxacin],1.05,inactive: 0.835,1.07
Cc1cn([C@H]2C=C[C@@H](CO)O2)c(=O)[nH]c1=O [Stavudine (d4T)],1.02,inactive: 0.931,1.26
Cc1noc(NS(=O)(=O)c2ccc(N)cc2)c1C [Sulfisoxazole],0.97,inactive: 0.907,1.26
CC(=O)Oc1ccc(C(c2ccc(OC(C)=O)cc2)c2ccccn2)cc1 [Bisacodyl],1.06,inactive: 0.906,0.955
CCCCCCCCCCCCCCCCCC(=O)OC [Stearic Acid methyl ester],1.03,inactive: 0.869,1.67
C[C@@H](O)[C@H]1C(=O)N2C(C(=O)O)=C(S[C@@H]3CN[C@H](C(=O)N(C)C)C3)[C@H](C)[C@H]12 [Meropenem],0.964,inactive: 1.4,1.19
CC(=O)[C@@]1(O)CC[C@H]2[C@@H]3C[C@H](C)C4=CC(=O)C=C[C@]4(C)[C@@]3(F)[C@@H](O)C[C@@]21C [Fluorometholone],1,inactive: 1.14,1.37
CN[C@@H]1[C@H](O[C@H]2[C@H](O[C@H]3[C@H](O)[C@@H](O)[C@H](N=C(N)N)[C@@H](O)[C@@H]3N=C(N)N)O[C@@H](C)[C@]2(O)C=O)O[C@@H](CO)[C@H](O)[C@H]1O [Streptomycin sulfate],0.935,inactive: 1.07,1
O=C1C(c2[nH]c3ccccc3c2O)=Nc2ccccc21 [Indigo],1.01,inactive: 0.721,0.946
CC1(C)C[C@@H]1C(=O)N/C(=C\CCCCSC[C@H](N)C(=O)O)C(=O)O [Cilastatin],1.03,inactive: 0.884,1.3
O=S(=O)(O)CCS [Mesna],1.05,inactive: 1.23,0.864
CCNC(=O)[C@@H]1CCCN1C(=O)[C@H](CCCN=C(N)N)NC(=O)[C@H](CC(C)C)NC(=O)[C@@H](C)NC(=O)[C@H](Cc1ccc(O)cc1)NC(=O)[C@H](CO)NC(=O)[C@H](Cc1c[nH]c2ccccc12)NC(=O)[C@H](Cc1cnc[nH]1)NC(=O)C1CCC(=O)N1 (stereo partly specified) [Alarelin Acetate],1.06,inactive: 1.19,1.52
C[C@@H]1[C@H](O)[C@@H](C)/C=C/C=C/C=C/C=C/C=C/C=C/C=C/[C@H](O[C@@H]2O[C@H](C)[C@@H](O)[C@H](N)[C@@H]2O)C[C@@H]2O[C@](O)(C[C@@H](O)C[C@@H](O)[C@H](O)CC[C@@H](O)C[C@@H](O)CC(=O)O[C@H]1C)C[C@H](O)[C@H]2C(=O)O [Amphotericin B],1.02,inactive: 0.724,0.964

SMILES,relative cell viability [1],relative GAG core protein HA-SDC1 amount per cell number [2],relative mutant VPS33A R498W amount [3]
CCc1ccc(CCOc2ccc(CC3SC(=O)NC3=O)cc2)nc1 (stereo unspecified) [Pioglitazone HCl],1.33,inactive: 1.05,1.01
Cc1nnc(NS(=O)(=O)c2ccc(N)cc2)s1 [Sulfamethizole],1.17,inactive: 0.763,1.07
CCCc1nc(C(C)(C)O)c(C(=O)O)n1Cc1ccc(-c2ccccc2-c2nnn[nH]2)cc1 [Olmesartan],1.09,inactive: 2.17,1.47
N[C@@H](CCC(=O)N[C@@H](CS)C(=O)NCC(=O)O)C(=O)O [L-Glutathione Reduced],1.03,inactive: 1.03,1.04
CCCCCCCCCC(=O)N[C@@H](Cc1c[nH]c2ccccc12)C(=O)N[C@H](CC(N)=O)C(=O)N[C@@H](CC(=O)O)C(=O)N[C@@H]1C(=O)NCC(=O)N[C@@H](CCCN)C(=O)N[C@@H](CC(=O)O)C(=O)N[C@H](C)C(=O)N[C@@H](CC(=O)O)C(=O)NCC(=O)N[C@H](CO)C(=O)N[C@@H]([C@H](C)CC(=O)O)C(=O)N[C@@H](CC(=O)c2ccccc2N)C(=O)O[C@@H]1C [Daptomycin],1.41,inactive: 0.99,1.28
CCN(CC)Cc1cc(Nc2ccnc3cc(Cl)ccc23)ccc1O [Amodiaquine dihydrochloride dihydrate],1.08,inactive: 0.875,2.9
CCCC(=O)[O-].[Na+] [Sodium butyrate],1.05,inactive: 0.897,1.11
"CCCS(=O)(=O)Nc1ccc(F)c(C(=O)c2c[nH]c3ncc(-c4ccc(Cl)cc4)cc23)c1F [Vemurafenib (PLX4032, RG7204)]",1.35,inactive: 1.14,0.989
O=C(O)/C=C(/CC(=O)O)C(=O)O [cis-aconitate],0.982,inactive: 0.924,1.38
NC(=O)OCC(COC(N)=O)c1ccccc1 [Felbamate],1.2,inactive: 0.709,1.25
C[N+](C)(C)CCCCCC[N+](C)(C)C [Hexamethonium Bromide],1.15,inactive: 1.24,1.07
CN(N=O)C(=O)N[C@@H]1[C@@H](O)[C@H](O)[C@@H](CO)O[C@@H]1O [Streptozocin],1.05,inactive: 1.56,1.13
CC(C)C(=O)c1c(C(C)C)nn2ccccc12 [Ibudilast],0.986,inactive: 0.669,0.609
CCC[C@@H]1C[C@@H](C(=O)N[C@@H]([C@H]2O[C@H](SC)[C@H](O)[C@@H](O)[C@H]2O)[C@H](C)Cl)N(C)C1 [Clindamycin HCl],1.09,inactive: 0.764,1.24
[O-][n+]1cccc(CO)c1 [Mepiroxol],1.14,inactive: 1.11,0.844
N[C@@H](Cc1cc(I)c(Oc2cc(I)c(O)c(I)c2)c(I)c1)C(=O)O [L-Thyroxine],1.14,inactive: 1.07,1.17
CS(=O)(=O)c1ccc(C(=O)Nc2ccc(Cl)c(-c3ccccn3)c2)c(Cl)c1 [GDC-0449 (Vismodegib)],1.1,inactive: 1.16,0.925
N#Cc1ccc(Oc2ccc3c(c2)COB3O)cc1,1.09,inactive: 1.04,1.01
CCOC(=O)c1ccc(OC(=O)CCCCCNC(=N)N)cc1 [Gabexate mesylate],1.18,inactive: 0.944,0.914
N=C(N)NCCN1CCCCCCC1 [Guanethidine Sulfate],1.1,inactive: 1.44,0.605
CCCCCN(C)CCC(O)(P(=O)(O)O)P(=O)(O)O [Ibandronate sodium],0.958,inactive: 1.19,0.517
"CC[C@H](Nc1ncnc2[nH]cnc12)c1nc2cccc(F)c2c(=O)n1-c1ccccc1 [CAL-101 (Idelalisib, GS-1101)]",1.09,inactive: 0.875,0.533
O.O.O=P([O-])([O-])O.[Na+].[Na+] [Sodium phosphate dibasic],1.24,inactive: 0.926,1.01
O=C(O)c1cccnc1 [Nicotinic Acid],0.972,inactive: 0.994,1.37
CNC[C@H](O)c1ccc(O)c(O)c1 [Epinephrine HCl],1.35,inactive: 0.664,0.94
CC(C[N+](C)(C)C)OC(N)=O (stereo unspecified) [Bethanechol chloride],1.09,inactive: 1.29,1.36
